Results as given in publication PMC4336329 (PLoS ONE, 2015).
About 14,000 (4.5%) of roughly 310,000 compounds showed an effect of 50% or more. The effect is printed as a negative number. Some of the results follow.

Each compound was assayed against human ether-à-go-go-related gene (hERG) potassium channel (human, UniProt Q12809) (assay: primary screen, population patch clamp on CHO cells stably expressing hERG).
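Further: peak tail current of the secondary pulse compared with the same well before compound.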

human ether-à-go-go-related gene (hERG) potassium channel, sequence (Q12809 whole entry, looked up): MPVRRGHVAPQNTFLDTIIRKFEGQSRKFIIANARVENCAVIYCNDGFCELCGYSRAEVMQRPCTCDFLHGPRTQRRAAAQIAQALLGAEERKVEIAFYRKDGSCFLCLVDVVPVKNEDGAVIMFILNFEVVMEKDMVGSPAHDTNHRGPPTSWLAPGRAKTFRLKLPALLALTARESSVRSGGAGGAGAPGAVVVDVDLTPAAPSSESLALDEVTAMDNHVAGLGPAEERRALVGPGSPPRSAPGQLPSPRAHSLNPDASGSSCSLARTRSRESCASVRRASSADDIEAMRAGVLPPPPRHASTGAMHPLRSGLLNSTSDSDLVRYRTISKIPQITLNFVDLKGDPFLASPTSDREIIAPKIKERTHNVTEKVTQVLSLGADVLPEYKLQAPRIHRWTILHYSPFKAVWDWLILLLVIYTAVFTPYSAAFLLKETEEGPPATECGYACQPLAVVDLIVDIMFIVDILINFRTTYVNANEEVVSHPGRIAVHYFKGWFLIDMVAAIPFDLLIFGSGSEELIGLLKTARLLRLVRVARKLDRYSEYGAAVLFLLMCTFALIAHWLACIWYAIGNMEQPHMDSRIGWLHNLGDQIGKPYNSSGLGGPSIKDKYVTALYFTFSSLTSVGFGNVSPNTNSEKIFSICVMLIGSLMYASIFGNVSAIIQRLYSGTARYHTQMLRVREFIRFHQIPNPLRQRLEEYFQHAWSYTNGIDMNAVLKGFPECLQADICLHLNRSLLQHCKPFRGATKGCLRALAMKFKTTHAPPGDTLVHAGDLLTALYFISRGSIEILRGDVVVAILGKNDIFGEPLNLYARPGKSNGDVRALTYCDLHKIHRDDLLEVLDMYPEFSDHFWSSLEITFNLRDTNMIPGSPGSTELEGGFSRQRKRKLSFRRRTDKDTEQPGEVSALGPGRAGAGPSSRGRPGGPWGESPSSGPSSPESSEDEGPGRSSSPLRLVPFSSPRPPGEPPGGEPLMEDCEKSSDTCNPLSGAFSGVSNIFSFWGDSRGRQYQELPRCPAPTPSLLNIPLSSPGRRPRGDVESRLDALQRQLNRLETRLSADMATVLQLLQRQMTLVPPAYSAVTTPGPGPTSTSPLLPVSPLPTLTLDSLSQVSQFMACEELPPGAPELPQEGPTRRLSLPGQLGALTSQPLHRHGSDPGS

Row | SMILES | hERG current change (%, negative = inhibition) at 10uM
1 | COc1cc(CNCCc2ccc(F)cc2)ccc1OCc1ccc(Cl)nc1.Cl | -68.2%
2 | CC1COc2ccccc2N1C(=O)c1ccc(Cl)nc1 (centres unmarked) | -4.07%
3 | S=c1[nH]nc(-c2ccc(Cl)cc2)n1CCCN1CCOCC1 | 9.41%
4 | COc1ccc(-n2nc3c(N4CCC(C(=O)NCc5cccc(C)c5)CC4)nnc(C)c3c2C)cc1 | -8.52%
5 | COc1cc2c(cc1OC)CN(CC(=O)Nc1ccc(Cl)c(S(=O)(=O)N(C)C)c1)CC2 | -19.3%
6 | COc1cc(OC)c(C(=O)OCC(=O)c2cc(C)n(CC3CCCO3)c2C)cc1OC (centres unmarked) | 13.3%
7 | CCCCC[C@H]1CN(C2CCCCC2)C(=O)[C@@H]1CC(=O)NCc1ccc(OC)cc1 | -67.4%
8 | O=C(Cc1cccc(C(F)(F)F)c1)N1CCCC1 | 23.4%
9 | O=C(CSc1ncn[nH]1)c1cc2ccccc2o1 | 22.3%
10 | O=C(Nc1ccc(S(=O)(=O)N2CCCC2)cc1)C1CCN(S(=O)(=O)c2ccc(F)cc2)CC1 | 12.9%
11 | O=C(NCc1ccco1)C(c1ccccc1)N(C(=O)Cc1cccs1)c1cccnc1 (centres unmarked) | -13.8%
12 | CC(=O)Nc1ccc(N2C(=O)CC(N3CCN(Cc4ccc5c(c4)OCO5)CC3)C2=O)cc1 (centres unmarked) | 1.61%
13 | COc1cc([N+](=O)[O-])ccc1NC(=O)C[n+]1cccc(C(C)=O)c1.[Cl-] | 25.5%
14 | CC1CCCCC12NC(=O)N(CC(=O)Nc1ccccc1N1CCOCC1)C2=O (centres unmarked) | 6.07%
15 | O=C(C1CC1)N1N=C(c2cccc(Br)c2)CC1(O)C(F)(F)F (centres unmarked) | 5.01%
16 | Cc1cc(Cl)ccc1OCC(O)CNCCc1ccc(S(N)(=O)=O)cc1 (centres unmarked) | -67.6%
17 | COc1ccc(NCC(=O)n2c(C)c(C)c3ccccc32)cc1 | 1.56%
18 | O=C(/C=C/c1ccccc1)c1ccccc1 | 11.3%
19 | COc1ccccc1NC(=O)C1CCCN1C(=O)Nc1ccc(F)cc1 (centres unmarked) | 4.61%

Row | SMILES | hERG current change (%, negative = inhibition) at 10uM
20 | COc1ccc(NC(=O)c2ccc3c(c2)CCN3S(=O)(=O)c2ccccc2)c(OC)c1 | 11.8%
21 | CCn1c(C)nc2cc(S(=O)(=O)Nc3ccc(C)cc3)ccc21 | -3.26%
22 | COc1cc(C(=S)N2CCOCC2)ccc1O | 29.3%
23 | Cc1cc(NC(=O)COC(=O)C2CCN(S(=O)(=O)c3c(Cl)cccc3Cl)CC2)no1 | -22%
24 | COc1ccccc1-c1cc(N)n[nH]1 | 26.7%
25 | COc1ccc(S(=O)(=O)c2ccc(OC)cc2)cc1 | -12.5%
26 | CCCN1C(=O)/C(=C/c2ccco2)SC1=Nc1ccc(OC)cc1 | -12.7%
27 | COc1ccc(CCNC(=O)C2CCCN(C(=O)c3ccc(Cl)cc3)C2)cc1 (centres unmarked) | -17.2%
28 | CCOc1ccc(CCNC(=O)COC(=O)c2nccnc2N)cc1OCC | 4.86%
29 | CC(=O)c1c(C)[nH]c(C(=O)OCC(=O)NCC(C)C)c1C | -3.44%
30 | Cc1cc(NC(=O)C(Cl)(Cl)Cl)no1 | 12.7%
31 | CCC(C)C(NC(=O)CCC(=O)OCC(=O)[C@@]1(O)CCC2[C@@H]3CCC4=CC(=O)C=C[C@]4(C)C3[C@@H](O)C[C@@]21C)C(=O)O (some centres unmarked) | 19.1%
32 | CCCCSc1nc2ccccc2[nH]1 | 6.14%
33 | COc1ccc(C/C(N)=N/OC(=O)c2ccco2)cc1OC | 20.4%
34 | Cc1ccc(C(=O)C(C)OC(=O)CCS(=O)(=O)c2ccc(C)cc2)cc1 (centres unmarked) | -6.15%
35 | COCc1cc(C)nc(N2CCN(c3ccccc3)CC2)c1C#N | -13.7%
36 | Cc1onc(-c2ccccc2)c1NC(=O)N(Cc1ccccc1)C(C)C | 11.8%
37 | Cc1ccc(CNC(=S)N(C)C)cc1 | 8.38%
38 | O=C(CCCC(=O)OCC(Cl)=C(Cl)Cl)Nc1ccccc1 | -2.93%

Row | SMILES | hERG current change (%, negative = inhibition) at 10uM
39 | O=S(=O)(NCC1CCCO1)c1ccc(S(=O)(=O)N(Cc2ccccn2)C2CC2)cc1 (centres unmarked) | -13.8%
40 | CCCc1ccc(C(=O)/C=C/N(C)C)cc1 | -11.4%
41 | CC1CCN(c2ccccc2NC(=O)c2ccc(Br)o2)CC1 | -0.73%
42 | Cc1ccc(OCCNC(=O)c2ccccc2OCc2c(C)noc2C)cc1 | 19.3%
43 | Cc1ccc(C)c(N(C)S(=O)(=O)c2ccc3c(c2)oc(=O)n3C)c1 | 9.12%
44 | Cc1cccc(NC(=O)C2CCCN(S(=O)(=O)c3c(C)nn(C)c3C)C2)n1 (centres unmarked) | 5.85%
45 | O=C(O)c1ccc(/C=N/NC(=O)c2ccc(CN3c4cccc5cccc(c45)S3(=O)=O)cc2)cc1 | 21.7%
46 | O=C(CSc1nnnn1C1CCCCC1)N1CCN(C(=O)c2ccco2)CC1 | 1.08%
47 | C/C(=N\NC(=O)c1ccccc1O)c1c(O)n(Cc2ccccc2)c(=O)[nH]c1=O | -2.37%
48 | O=C(N/N=C/C1CC2CCC1C2)c1c[nH]c2ccccc12 (centres unmarked) | 1.38%
49 | COc1cccc(CNc2nc3ccccc3n2C)c1O | 0.402%
50 | COc1ccc(C2NC(=O)N(CCCC(=O)O)C(C)=C2C(=O)OCc2ccccc2)cc1 (centres unmarked) | 13.9%
51 | COc1ccccc1OCCOCCOc1c(C)cc(C)cc1Br | 8.26%
52 | O=C1CN(C(=O)/C=C/c2ccc(Cl)cc2)c2ccccc2N1 | -75.2%
53 | Cc1ccc(-c2ccc(/C=C3\C(=O)ON=C3c3ccccc3)o2)c([N+](=O)[O-])c1 | -26.7%
54 | CCCC(=O)c1ccc(N2CCN(C(=O)OCC)CC2)c(F)c1 | -14.2%
55 | Cc1ccc(N2CC(C(=O)Nc3cccnc3)CC2=O)cc1C (centres unmarked) | 3.11%
56 | Cc1nc2ccccc2nc1OCC(=O)Nc1ccccc1 | 14.8%
